# Measured values as given in ChEMBL document CHEMBL1157539, “Thousands of chemical starting points for antimalarial lead identification” (Nature, 2010).
# Whole data set: some 13,000 compounds, median “IFI” near 4, cut for the highest 2% near 17. This is one part of the list.
# Test: GSK_TCMDC: Inhibition Frequency Index (IFI). The number of non-kinase HTS assays where a compound showed > 50 % inhibition, expressed as a percentage of the number of such assays in which the compound was tested (-0 is zero)
# Type: functional
row,SMILES,IFI [%]
1,O=C(Nc1cccc(CN2CCCN(Cc3ccc(O)cc3)CC2)c1)c1cccc(C(F)(F)F)c1,1.38
2,O=C(Cc1c[nH]cn1)Nc1cccc(-c2ccc(-c3nc4cc(C(F)(F)F)ccc4[nH]3)s2)c1,3.74
3,O=C(/C=C/c1cccc(Cl)c1)Nc1ccc2nc(CN3CCCC3)ccc2c1,7.59
4,CN1CCN(CCCN(Cc2csc(-c3ccc(CNCc4ccccc4)cc3)n2)S(=O)(=O)c2ccccc2)CC1,5.63
5,O=c1cc(NCCCNCc2ccccc2-c2ccccc2)[nH]c2ccccc12,7.64
6,COCCNCc1ccc(-c2ccccc2CNC2CCN(Cc3ccccc3)CC2)cc1,3.68
7,CCc1cc2c(Sc3nnc(N)s3)ncnc2s1,4.83
8,O=C(NC1CCN(Cc2ccccc2)CC1)c1cc(C(=O)NC2CCN(Cc3ccccc3)CC2)cc(C(=O)NC2CCN(Cc3ccccc3)CC2)c1,1.45
9,Cc1ccccc1OCCCON1C(=N)N=C(N)NC1(C)C,5.59
10,CN1CCC(N2CCN(CCOc3cc(NC(=O)/C=C/c4ccccc4Cl)ccc3Br)CC2)CC1,7.3
11,CN1CCN(c2cccc(NC(=O)c3ccc(-c4ccc(C#N)cc4)cc3)c2)CC1,2.68
12,CCOc1ccc(C2CCN(CCCCNC(=O)c3ccc(NC(=O)c4ccc(Cl)cc4)cc3)CC2)c(Cl)c1,7.08
13,COc1ccc(CCNCCCCCCNCCc2ccccc2Cl)cc1OC,2.88
14,O=C(OCc1ccccn1)c1nc2ccccc2[nH]1,1.42
15,CN1CCCc2ccc(NC(=O)c3ccc(-c4cc(C(F)(F)F)nn4C)s3)cc2C1,3.45
16,CN1CCN(c2ccc3[nH]c(-c4ccc5[nH]c(-c6ccc([N+](=O)[O-])c(N)c6)nc5c4)nc3c2)CC1,5.97
17,CCCC(C)n1ccc2c3c(N)nc(N)nc3ccc21 (stereo not given),4.9
18,CN1CCc2cc(CN3CC4(C)CC3CC(C)(C)C4)c(O)cc2C(c2ccccc2)C1 (stereo not given),3.03
19,COc1ccc(-c2cc(C(=O)N[C@@H](CC3CCCCC3)C(=O)NC3CCCc4ccccc43)ccc2O)cc1 (stereo not given in full),0.75
20,CC(C)(C)c1ccc(N2C(N)=NC(N)=NC2(C)C)cc1,2.21
21,CC(=O)Nc1cccc(C(=O)Nc2ccc(-c3cccc(-c4nc5cc(F)ccc5[nH]4)c3)cc2)c1,3.51
22,CC1(C)NC(N)=NC(=N)N1OCCCNC(=O)c1ccc([N+](=O)[O-])cc1,2.24
23,CN1CCN(c2cccc(-c3nnc(-c4ccc(OCC(=O)NCc5cccc(C(F)(F)F)c5)c([N+](=O)[O-])c4)o3)c2)CC1,2.17

row,SMILES,IFI [%]
1,COc1ccc2nccc([C@@H](O)CN3CCC(NCc4cc5sccc5nc4C(F)(F)F)CC3)c2c1,2.17
2,Cc1cccc(C)c1C1CCN(C2CCC(NC(=O)/C=C/c3ccccc3)CC2)CC1 (stereo not given),6.06
3,COc1ccccc1CCNc1nc(C)cc(N[C@@H](CC(C)C)C(=O)Nc2ccccc2)n1,15.8
4,CCN(CCCN1CCCCC1)c1cc(C)nc(Nc2ccc(C)cc2C(F)(F)F)n1,5.06
5,CN(C)Cc1cc(Nc2ccnc3cc(Cl)ccc23)ccc1O,1.4
6,CN1CCN(CC(=O)Nc2ccc(-c3cccc(-c4nc5cc(F)ccc5[nH]4)c3)cc2)CC1,3.6
7,COc1ccc(C(=O)CCC(=O)N(Cc2ccc(-c3ccc(CNCCc4ccccc4)cn3)cc2)C(C)CN(C)C)cc1F (stereo not given),6.9
8,Cc1cc(Nc2ccc(O)cc2)nc2cc(O)ccc12,3.85
9,CN1CCN(CCc2ccc(N/C=C3\C(=O)Nc4ccc5ncccc5c43)cc2)CC1,7.86
10,Cc1cccc2nc(-c3ccc(-c4cccc(NC(=O)c5ccncc5)c4)cc3)[nH]c12,5.61
11,CC(Cc1ccc(NC(=O)c2ccc(CC(C)NCc3ccc(Cl)c(Cl)c3)cc2)cc1)NCCc1cccc(Cl)c1 (stereo not given),3.57
12,Cc1c(F)cc(C(=O)NC2CC2)cc1-c1ccc2c(cnn2S(=O)(=O)c2ccc(F)c(F)c2)c1,5.19
13,COc1cc(-n2cnc3cc(-c4ccc(Cl)cc4)sc3c2=O)ccc1OCCN1CCC(c2cccc(NC(C)=O)c2)CC1,10.1
14,Clc1cccc(C=NNc2ccnc3cc(Cl)ccc23)c1,2.22
15,CCc1cn2c3c(cc(C(=O)N[C@@H](Cc4cccc(Cl)c4)[C@H](O)CNC4CC4)cc13)N(C)S(=O)(=O)CC2,3.68
16,CN1CCN(c2ccnc3ccc(NC(=O)Nc4ccc(Cl)cc4)cc23)CC1,0.73
17,c1cncc(CCNCc2cccc(-c3ccc(-c4nc5ccccc5[nH]4)s3)c2)c1,3.53
18,O=C(NC1CC1)c1ccc(Nc2nccc(-c3c(-c4cccc(NC(=O)c5c(F)cccc5F)c4)nn4ccccc34)n2)cc1,6.43
19,CCCCCCCCc1nc(C)c(Br)c(O)c1Br,5.76
20,O=C(NCCNc1ccnc(Nc2ccc(F)cc2)n1)c1cc2ccccc2s1,4.62
21,CN1CCC(Oc2cc(NC(=O)Nc3ccc(-c4ccncc4)c(C(F)(F)F)c3)ccc2Cl)CC1,8.03
22,Cc1cc(CN2CC[C@H](NC(=O)c3ccc(Cl)c(Cl)c3)C2)ccc1OCCN1CCNCC1,5.88
23,CCN(CCCN1CCCCC1)c1cc(C)nc(Nc2ccc(C)c(F)c2)n1,3.85

row,SMILES,IFI [%]
1,CC(C)Cc1nc(N)nc(N)c1-c1ccc(Cl)cc1,0.76
2,Cc1nc2nc(N)nc(N)c2c(C)c1Cc1ccc(Cl)cc1,2.22
3,COc1ccc2nccc([C@@H](O)CN3CCC(NCc4nc5c(cc4Cl)SCC(=O)N5)C(F)C3)c2c1 (stereo not given in full),2.38
4,Cc1cc(N)c2cc(NC(=O)c3cccc(C(=O)Nc4ccc5nc(C)cc(N)c5c4)c3)ccc2n1,8.84
5,COc1cc(Cc2cnc(N)nc2N)cc(OCCCCCCN)c1OC,0
6,O=C(Nc1cccc(-c2ccc(CN3CCC(O)CC3)cc2)c1)c1ccc(Cl)cc1,3.85
7,CCN(CC)c1nc(N)c2c(N)nc3c(c2c1C#N)C(=O)CN3Cc1ccccc1,11.8
8,COc1ccc(-c2ccnc(-c3cccc(-c4ccccn4)n3)c2)cc1,13.3
9,CCCCc1cc(N2CCC(NC(C)=O)C2)nc(Nc2ccc(C)cc2)n1 (stereo not given),1.45
10,Cc1[nH]c(C)c(-c2ccc(-c3ccccc3Cl)nc2)c(=O)c1Br,0
11,N#Cc1ccc(N2CCN(Cc3cccc(-c4ccc(-c5nc6cc(C(F)(F)F)ccc6[nH]5)s4)c3)CC2)nc1,9.8
12,CCN1CCN(c2ccc(NC(=O)c3cc4c(C)nn(-c5ccccc5)c4s3)cc2C)CC1,11.3
13,CN1CCCN(Cc2ccc(-c3ccc(NC(=O)c4cccc(C#N)c4)cc3)cc2)CC1,7.22
14,CC(C)NCc1ccc(-c2ccc(NC(=O)c3ccc(Cl)cc3)cc2)cc1,7.14
15,COc1ccc2nccc([C@@H](O)CN3CCC(NC(=O)C(c4ccsc4)N4CCN(c5ccccc5)CC4)CC3)c2c1 (stereo not given in full),0.69
16,COc1cccc(OC)c1-c1ccccc1NC(=O)N1CCCc2cc(C)ccc21,3.7
17,CC(=O)Nc1ccc(C(=O)Nc2cccc(-c3cccc(-c4nc5cccc(C)c5[nH]4)c3)c2)cn1,1.87
18,COc1ccc(NC(=O)/C=C/c2ccccc2Cl)cc1OCCN1CCC(N2CCCCC2)CC1,3.1
19,CC(C)Oc1ccc(C=CC(=O)Nc2noc3ccccc23)cc1,1.54
20,CC(=O)N1Cc2ccccc2C1=O,0.75
21,Cc1cc2c(cc1C(F)(F)F)N(C(=O)Nc1cc(C(=O)NCCN(C)C)cc(C(F)(F)F)c1)CC2,3.57
22,FC(F)(F)c1ccc2[nH]c(-c3ccc(-c4ccc(CNCc5cnn(-c6ccccc6)n5)cc4)s3)nc2c1,11.3
23,O=C(NC1CCC(N2CCC(c3ccccc3C(F)(F)F)CC2)CC1)c1cc2ccccc2[nH]1 (stereo not given),10.4

row,SMILES,IFI [%]
1,Cc1ccc(NC(=O)Nc2ccc(Br)cc2)cc1OCCN(C)C,2.1
2,O=C(Nc1ccccc1Cc1ccccc1)c1ccccc1C(F)(F)F,0.78
3,O=C(NCCc1ccccc1)[C@H](Cc1ccccc1)Nc1ccnc(NCC2CCCCC2)n1,20.4
4,Cc1c(Cl)cccc1S(=O)(=O)N1CCCCC(c2ccc(C(F)(F)F)cc2)=N1,2.19
5,Cc1n[nH]c2ccc(-c3cc(OC[C@@H](N)Cc4ccccc4)cnc3-c3ccc(OCc4cccc(F)c4)cc3)cc12,12.5
6,Cc1cc(C(=O)OCC(=O)Nc2c(C)n(C)n(-c3ccccc3)c2=O)c(C)n1-c1ccc(F)cc1,0
7,O=C(Nc1ccc(C(F)(F)F)cc1)NC1CCN(c2ccnc3ccccc23)C1 (stereo not given),6.06
8,c1ccc(CN2CCC(NCc3ccc(-c4ccc(CNCc5cccnc5)cn4)cc3)CC2)cc1,0.68
9,C[C@H](Cc1ccc(OCCCCCOc2ccc(C[C@@H](C)NC[C@H](O)c3cccc(Cl)c3)cc2)cc1)NC[C@H](O)c1cccc(Cl)c1,20.9
10,COc1cccc2cc(C(=O)N[C@@H](CC(C)C)C(=O)N[C@H](/C=N/N3C(=O)CN(Cc4ccccc4)C3=O)CCc3ccccc3)oc12,5.5
11,CN(C)CCNCc1ccc(-c2ccc3c(Nc4ccc(Cl)cc4F)ccnc3c2)o1,7.04
12,CS(=O)(=O)CCCNCc1ccc(-c2cc3c(Nc4ccc(OCc5ccccc5)cc4)ncnc3cn2)o1,3.65
13,Cc1cc(Cc2ccc(S(=O)(=O)c3cc4c(cc3O)CCN(C)CC4)cc2)ccc1Cl,12.7
14,N#Cc1ccc2c(c1)CCN(CCC1CCC(NC(=O)/C=C/c3cc(Br)cs3)CC1)CC2 (stereo not given),2.14
15,CCNc1cc(C(=O)N[C@@H](Cc2ccccc2)[C@H](O)CNC(CC)c2cccc(Cl)c2)cc(N2CCCCS2(=O)=O)c1 (stereo not given in full),4.96
16,COc1cccc2c(NN=Cc3cccc(Cl)c3)cc(C)nc12,2.88
17,Clc1ccccc1C=NN=c1cc[nH]c2ccccc12,2.96
18,CC1SC(=S)NC1C(=O)O (stereo not given),0.76
19,Nc1ncc(-c2cn[nH]c2)cc1-c1nc2ccc(Cl)cc2[nH]1,3.03
20,CCOc1cc(OCC)c2ccccc2c1CNCCCCCCNCc1c(OCC)cc(OCC)c2ccccc12,16
21,Cc1cccc2nc(-c3ccc(-c4ccc(NC(=O)NCc5cccc(F)c5)cc4)cc3)[nH]c12,4
